Results taken from the supplement of paper PMC3656093.
± gives the standard deviation of the averaged measurements. Whole data set: some 1,900 compounds, median “CD40L-induced NF-kB luciferase activity, plate-corrected, relative to DMSO (0) and IKK inhibitor VII (-100) controls” near 0.032, cut for the lowest 2% near -26. The list shows a part of the results.

Test system: BL2-NFkB-Luc
Experiment: CD40L-induced NF-kB luciferase activity, plate-corrected, relative to DMSO (0) and IKK inhibitor VII (-100) controls (% normalized activity); higher = more NF-kB reporter activity (less inhibition)
Conditions: 9.4 µM; stimulus: tCD40L 64 ng/ml; 4.5 h
Description: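 BL2 B cells with a stable NF-kB response-element luciferase reporter (BL2-NFkB-Luc), 384-well. Cells were pre-incubated with compound at 9.4 uM for 1 h at 37 C, then stimulated with 64 ng/ml trimerized CD40L for 4.5 h; luciferase was read with Steady-Glo. Signal was normalised per plate in Genedata (median DMSO neutral control = 0, median IKK inhibitor VII at 50 uM = -100) with Assay Median plate-pattern correction; duplicate plates.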

SMILES | CD40L-induced NF-kB luciferase activity
COc1cc2nc(N3CCN(C(=O)c4ccco4)CC3)nc(N)c2cc1OC | -0.292 ± 0.47
COc1ccc2c(c1O)Cc1ccccc1C2=O | 44.8 ± 13
CC(=O)[C@@H]1[C@@H](C(=O)c2ccc(C)cc2)[C@]2(C(=O)Nc3ccccc32)[C@H]2C=Cc3cc(F)ccc3N12 | 3.22 ± 1.4
O=c1oc2c(CN3CCCCC3)c(O)ccc2c2c1CCCCC2 | 3.37 ± 7.8
CC1CCCc2sc3ncn(N)c(=N)c3c21 (configuration not stated) | -2.53 ± 1.9
COC(=O)c1ccc(C(=O)OC)c(NC(=O)C(C)C)c1 | -1.03 ± 0.61
O=C(c1cccnc1)N1N=C(C2CC2)CC1(O)C(F)(F)F (configuration not stated) | 1.25 ± 2.2
Nc1ccc(S(=O)(=O)c2ccc(N)cc2)cc1 | -2.51 ± 1.8
OCCN1CCN(CCCN2c3ccccc3Sc3ccc(Cl)cc32)CC1 | -0.695 ± 1.4
COC(=O)C1=C(C)N(C)C(=S)NC1c1ccc(Cl)cc1 (configuration not stated) | -1.51 ± 7.8
O=C(NNC(=O)c1cccs1)c1ccco1 | -1.85 ± 2.4
Cn1nnnc1SCC1=C(C(=O)O)N2C(=O)[C@@H](NC(=O)[C@H](O)c3ccccc3)[C@H]2SC1 | 0.9 ± 1.8
CCCC(=O)O[C@]1(C(=O)COC(C)=O)CC[C@H]2[C@@H]3C[C@H](F)C4=CC(=O)C=C[C@]4(C)[C@@]3(F)[C@@H](O)C[C@@]21C | -17.6 ± 1.6
CC(=O)OCC#CCSc1nc2ccccc2n1C | 6.54 ± 2.4
O=C(O)c1ccccc1C(=O)OCCCCOC(=O)c1ccccc1C(=O)O | -5.58 ± 0.63
CC(=O)Nc1ccc2[nH]c(C)c(CC=C(Cl)Cl)c(=O)c2c1 | -5.15 ± 0.9
O=c1cc(-c2ccccc2)oc2cc(OCc3ccccc3)cc(O)c12 | 3.36 ± 4.5
O=C(COc1ccc2c(-c3ccccc3)cc(=O)oc2c1)NCc1cccs1 | 10.3 ± 1.1
COc1cc(CNc2nnnn2C)ccc1OCc1ccc(F)cc1Cl | -2.11 ± 11
CCc1cc2c(C)cc(=O)oc2cc1OC(=O)C1CCCN1C(=O)OC(C)(C)C (configuration not stated) | 3.67 ± 4.8
CCCc1c(OCCCCc2nn[nH]n2)ccc(C(C)=O)c1O | 3.29 ± 4.4
C=CCc1cccc2cc(C(=O)Nc3ccc(CC(=O)O)cc3)c(=O)oc12 | -5.12 ± 7.4
CCc1cccc(OC2OC(CO)C(O)C(O)C2NC(C)=O)c1 (configuration not stated) | 0.237 ± 1.4

SMILES | CD40L-induced NF-kB luciferase activity
Cc1ccc(CN2CCN(Cc3cn[nH]c3C3CCCCC3)CC2CCO)cc1 (configuration not stated) | 2.58 ± 2.8
CCCC(=O)Nc1ncnc2c1ncn2[C@@H]1O[C@@H]2COP(=O)(O)O[C@H]2[C@H]1OC(=O)CCC | 0.597 ± 2.9
O=C(N1CCCCC1)C1(c2ccccc2)CCOCC1 | -1.25 ± 1
CCOc1ccc2nc(NC(=O)NC3CCCCC3)sc2c1 | 13.7 ± 0.33
Nc1nc(SCc2ccc([N+](=O)[O-])cc2)c2ncn(C3OC(CO)C(O)C3O)c2n1 (configuration not stated) | 6.103 ± 0.039
CC(C)Cc1cc(C(=O)N2CCC(N3CCC(C(=O)N4CCCC4)CC3)CC2)n[nH]1 | -1.03 ± 0.32
C[C@H]1C[C@H]2[C@@H]3CCC4=CC(=O)C=C[C@]4(C)[C@@]3(Cl)[C@@H](O)C[C@]2(C)[C@@]1(O)C(=O)CO | -25.6 ± 2.2
COc1cccc2cc(-c3ccccc3)c(=O)oc12 | 55.9 ± 8.7
COc1ccc(-c2c3c(=O)n(C)c(=O)n(C)c3cn2C2CCCCC2)cc1 | 0.188 ± 0.9
Cn1cc(/C=C/C(=O)c2ccccc2)c2ccccc21 | 3.44 ± 3
CC(=O)[C@H]1CC[C@H]2[C@@H]3CCC4=CC(=O)CC[C@]4(C)[C@H]3[C@H](O)C[C@]12C | -10.6 ± 14
O=C(c1cc2cc(Br)ccc2o1)N1CCCC1 | 38.77 ± 0.2
Cc1ccc(P(=O)(CSC(=N)N)c2ccc(C)cc2)cc1 | -16.8 ± 1.5
CC1(C)CC(C(CC(=O)O)c2ccccc2)CCO1 (configuration not stated) | 8.6 ± 1.1
CC(=NNC(=O)C1(C)CC1(Br)Br)c1ccc([N+](=O)[O-])cc1 (configuration not stated) | 2.34 ± 3.3
CC(C)OC(=O)CC12CN3CN(C1)CC(CC(=O)OC(C)C)(C3)C2=O | 4.53 ± 5.1
CC(=O)N1CCn2c3c(c4cc(C)ccc42)CCCC31 (configuration not stated) | 1.48 ± 4.6
COc1ccc2cc[nH]c2c1 | -2.12 ± 5.1
C[C@H](NC(=O)Nc1ccccc1F)C(=O)O | 3.4 ± 0.28
CCc1cc(=O)oc2cc(OCc3nn[nH]n3)ccc12 | -0.362 ± 2.4
C[S+]([O-])c1ccccc1O (configuration not stated) | -1.44 ± 1.8
CC(=O)Oc1cc(C(C)C)c(OCCN(C)C)cc1C | 0.175 ± 3.1
COC1=CC(=O)CC(C)C12Oc1c(Cl)c(OC)cc(OC)c1C2=O (configuration not stated) | -12.1 ± 0.18

SMILES | CD40L-induced NF-kB luciferase activity
CS(=O)(=O)Nc1cccc(C(=O)CC2(O)C(=O)Nc3ccc(Br)cc32)c1 (configuration not stated) | -1.48 ± 3.9
O=C(/C=C/c1c[nH]c2ccccc12)c1cccc2ccccc12 | 1 ± 1.2
O=C(N1CCCC1)C12CC3CC(C1)CC(C(=O)N1CCCC1)(C3)C2 | -3.85 ± 1.6
O=c1[nH]c(=O)n([C@H]2C[C@H](O)[C@@H](CO)O2)cc1F | 4.58 ± 7
NS(=O)(=O)c1cc2c(cc1Cl)NCNS2(=O)=O | 3.64 ± 7.5
CC(C)Cn1c(=S)[nH]c2cc(C(=O)O)ccc2c1=O | 1.33 ± 2.4
NC(N)=N/N=C/c1c(Cl)cccc1Cl | -3.93 ± 7.5
Cc1coc2cc3oc(=O)c(CCC(=O)O)c(C)c3cc12 | 8.04 ± 4.1
C[N+](C)(C)CCOP(=O)(O)OC[C@H](O)CO | -15.1 ± 19
CC(=O)[C@@]1(O)CC[C@H]2[C@@H]3CCC4=CC(=O)CC[C@]4(C)[C@H]3[C@@H](O)C[C@@]21C | -12.9 ± 3.2
CS(=O)(=O)Nc1ccc([N+](=O)[O-])cc1Oc1ccccc1 | -1.13 ± 4
COc1cc(C)nc(-n2nc(C)cc2OC)n1 | 3.15 ± 0.63
CCOc1ccc(CC2c3cc(OCC)c(OCC)cc3CCN2C(=O)CN2CCN(C)CC2)cc1OCC (configuration not stated) | -6.59 ± 12
COC(=O)c1[nH]c2ccc(F)cc2c1NC(=O)C1=COCCO1 | 0.19 ± 3.9
O=C(NCCO)c1ccc2[nH]c3ccccc3c2c1 | -0.687 ± 0.91
COc1ccc(CN2CCCC(C(=O)c3ccc(Cl)cc3)C2)cc1Cn1cccn1 (configuration not stated) | -6.8 ± 6.1
COc1ccc2c(c1OC)C(C1c3c(cc4c(c3OC)OCO4)CCN1C)OC2=O (configuration not stated) | 3.37 ± 3.6
CC1(C)C(=O)OC(/C=C\c2ccccc2)C(C)(C)C1=O (configuration not stated) | -6.16 ± 0.13
O=C(OCC1CCCN2CCCCC12)c1ccc2c(c1)OCO2 (configuration not stated) | 3.01 ± 4.1
COc1cc(C(=O)OCCCN(C)C)cc(OC)c1OC | -3.95 ± 3.6
CCc1cc(C(N)=S)ccn1 | 2.2 ± 2.8
Cc1ccc2c(c1)c(=O)c1c3n2CCN(C(=O)CCl)C3CC1 (configuration not stated) | -2.91 ± 2.5
COc1ccccc1-c1ccc(/C=C2/C=C(CC(C)C)OC2=O)o1 | 3.27 ± 3.5

SMILES | CD40L-induced NF-kB luciferase activity
NC(=O)c1ncn([C@@H]2O[C@H](CO)[C@@H](O)[C@H]2O)c1O | 1.27 ± 4.8
COc1ccc2c3c([nH]c2c1)C1(NCC3)C(=O)Nc2ccccc21 (configuration not stated) | 5.33 ± 6.5
COc1ccccc1/C=C/CN1CCN(Cc2ccc(F)cc2)C(CCO)C1 (configuration not stated) | -2.69 ± 5.2
Cn1nc(-c2ccc(Cl)cc2)nc2c(=O)n(C)c(=O)nc1-2 | -95.22 ± 0.55
O=C(O)CCCN1C(=O)NC2NC(=O)NC21 (configuration not stated) | -1.73 ± 3.4
CC1(C)CC(O)(CNCc2ccc3c(c2)OCO3)CCO1 (configuration not stated) | -6.54 ± 2.5
CCOc1ccc(NC2OC(C)C(O)C(O)C2O)c([N+](=O)[O-])c1 (configuration not stated) | 4.18 ± 5.1
Cc1ccc(/C(=C\CN2CCCC2)c2ccccn2)cc1 | -9.06 ± 13
O=C1OC(c2ccccc2)=C/C1=C/c1cccs1 | 30.9 ± 2.3
Cc1ccc(S(=O)(=O)NC(=O)Nc2cc(C)ccc2F)cc1 | -7.04 ± 0.65
O=C(c1ccccc1F)c1cc2c(cc1[N+](=O)[O-])OCCO2 | 4.21 ± 2.1
O=C1C(Cc2ccccc2)NC(=S)N1c1ccccc1 (configuration not stated) | 0.565 ± 0.47
CNCCC=C1c2ccccc2CCc2ccccc21 | 3.86 ± 3.4
Cn1c2ccccc2c2cc(/C=C(\NC(=O)c3ccccc3)C(=O)O)ccc21 | 0.0587 ± 0.86
COc1ccc2[nH]c(CN3CCN(CC(C)C)C(CCO)C3)c(C)c2c1 (configuration not stated) | -3.64 ± 2.3
CNC[C@H](O)c1cccc(O)c1 | -1.83 ± 3.4
COc1ccc(CCNC(=O)C(=O)Nc2ccc3c(c2)OCO3)cc1OC | 0.742 ± 2.8
CCOc1ccc2oc(-c3ccccc3)c(C(=O)O)c2c1 | 0.687 ± 3.3
COc1ccc(NC(=O)CC(c2ccccc2)c2ccco2)cc1 (configuration not stated) | -4.98 ± 9.2
COc1cc(OC)c2c(C)c(Cl)c(=O)oc2c1 | 19.8 ± 1.7
O=C(CC1SC(=O)NC1=O)Nc1ccc(Cl)cc1 (configuration not stated) | 2.93 ± 5.1
COc1ccc(C(=O)Nc2ccccc2C(=O)NCCCn2ccnc2)cc1 | 3.18 ± 2.2
CC(C)CC(NC(=O)C(NC(=O)OC(C)(C)C)C(C)C)C(=O)NC(CCC(=O)OCc1ccccc1)C(N)=O (configuration not stated) | 5.49 ± 5.4

SMILES | CD40L-induced NF-kB luciferase activity
COc1ccc(Br)cc1C(=O)Nc1ccc(C(=O)O)cc1 | -4.22 ± 1.9
COc1ccc(C2(CCN=Cc3ccc(N(C)C)cc3)CCOC(C)(C)C2)cc1 (configuration not stated) | 3.22 ± 2.5
COc1ccc(-c2csc(-c3cccnc3)n2)cc1C | 54.3 ± 0.95
CCC(C)NCCOCCOc1ccc(Cl)c2ccccc12 (configuration not stated) | -3.83 ± 0.8
CN=C(NC#N)NCCSCc1nc[nH]c1C | 3.09 ± 3.4
CCOC(=O)c1cnc2ccccc2c1NCCO | 0.446 ± 3.2
CCOC(=O)Nc1ccc2c(c1)N(C(=O)CCN1CCOCC1)c1ccccc1S2 | 0.116 ± 0.31
CC1(CC(=O)Nc2ccccc2)NC(=S)N(c2ccccc2)N1 (configuration not stated) | 22.4 ± 3
O=C(O)CCn1c(=S)n(CCC(=O)O)c2ccccc21 | 4.48 ± 1.5
CC1=C(C)C(=O)C(CCCCC#CCCCC#CCO)=C(C)C1=O | -9.18 ± 1.8
C#C[C@]1(O)CC[C@H]2[C@@H]3CCc4cc(OC)ccc4[C@H]3CC[C@@]21C | 0.208 ± 3.1
O=C(c1ccc(F)cc1)[C@@H]1[C@@H](C(=O)c2ccccc2)[C@@]2(C(=O)Nc3ccccc32)[C@H]2c3ccccc3C=CN12 | 6.58 ± 1.4
O=C(O)/C=C/c1cccc(OCc2ccccc2)c1 | 1.54 ± 2.9
CCOCC(=O)Nc1ccccc1C(=O)N1CCOCC1 | -5 ± 1
COc1cc2c(cc1OC)-c1nnc(C)n1C(C)(C)C2 | -0.442 ± 6.8
O=C(CN1C(=O)c2ccccc2S1(=O)=O)Nc1ccccc1 | -6.73 ± 3.7
O=C(/C=C/c1ccco1)Nc1ccccc1C(=O)O | 1.64 ± 1.8
c1coc(-c2nnc3n2C2(CCCC2)Cc2ccccc2-3)c1 | 3.3 ± 1.4
O=C1CC(c2ccc(OCCCCCOc3ccc(C4CC(=O)NC4=O)cc3)cc2)C(=O)N1 (configuration not stated) | 1.1 ± 0.16
CC(C)CC(=O)NC(NC(=O)CC(C)C)c1cccc([N+](=O)[O-])c1 | -3.39 ± 3
